The whole screen tested about 52,000 compounds, of which about 1,700 (3.3%) were called active. No stated cut-off is given here; in the data, active means survival mostly below about 52% (no sharp cut-off); inactive means mostly above about 56%. Some of the results follow.

The experiment has as its system Wild type. Briefly: growth inhibition of S. aureus wild type versus tarO mutant, primary screen, teichoic acid synthesis inhibitors, RN4220, OD600 (AID 463173). Particulars: S. aureus RN4220 wild type/DeltatarO growth, OD600, 18 h, active compounds read low, screened at 18.75 µg/mL (by protocol).
On to `Cc1ccc2ncc(S(=O)(=O)c3ccccc3)c(N3CCCCC3C)c2c1` (centres undefined), for which the survival is active: 0%.
As for `COc1ccc(Cl)cc1NC(=O)Cn1ncc2c3ccccc3n(Cc3ccccc3)c2c1=O`, the survival was inactive: 122%.
For `Cc1ccc(C(=O)c2oc3ccccc3c2NC(=O)c2cc(-c3ccc(Cl)cc3)on2)cc1` the value was inactive: 86%; for `Cc1ccccc1Nc1sc(C(=O)c2ccc(F)cc2)c(N)c1C(=O)NCCc1ccccc1`, inactive: 55%.
As for `Cc1cc(C)c2[nH]c(=O)c(CN(CCCO)C3(c4nnnn4C4CCCC4)CCCC3)cc2c1`, the figure is inactive: 112%; as for `CCOc1ccc(C(=O)NCc2nnnn2-c2ccc(C)c(C)c2)cc1OCC`, inactive: 73%; as for `CCc1nn(CC(=O)NCC(C)c2ccccc2)c(=O)c2cc3occc3n12` (centres undefined), inactive: 123%.
As for `Cc1cc(C)c(NC(=O)CCN2C(=O)c3ccccc3Sc3ncccc32)c(C)c1`, the figure is inactive: 114%; as for `Cc1nc2cc(C(=O)NCCC3=CCCCC3)ccc2n1-c1ccc(Br)cc1`, inactive: 75%; as for `Cc1ccc(-n2c(=O)c3ccc(C(=O)NCc4ccccc4Cl)cc3n(CC(=O)Nc3cccc(Cl)c3)c2=O)cc1`, inactive: 130%.
For `CSc1nc(Nc2ccc(C)cc2C)cc(-c2ccccc2)n1`, the survival is inactive: 50%.
As for `COC(=O)c1cc2c(cc1NC(=O)c1cnn(-c3ccccc3)c1-n1cccc1)OCO2`, the figure is inactive: 80%.
As for `CCCCCNC(=O)c1ccc2c(c1)ncn2-c1cccc(C)c1`, the figure is active: -3%.
As for `O=C1COc2ccc(-c3cc(-c4ccc(Cl)cc4)c4c(n3)-c3ccccc3OC4)cc2N1`, the figure is inactive: 139%; as for `Cc1cccc(C(=O)Nc2nnc(S(=O)(=O)N(C)Cc3ccc(Cl)cc3)s2)c1`, inactive: 69%; as for `CCOC(=O)CNC(=O)CSc1cn(CC(=O)N2CCCCCC2)c2ccccc12`, inactive: 99%.
`CN(Cc1ccccc1)C(=O)C1CCN(S(=O)(=O)c2ccc3c(c2)oc(=O)n3C)CC1`: the survival is inactive: 94%.
For `COc1cc(CNC(=O)c2sc3ncccc3c2-n2cccc2)cc(OC)c1OC` the value was inactive: 128%; for `COc1cccc(C2CC(=O)Nc3cc(OC)c(OC)c(OC)c32)c1OC(C)C` (centres undefined), inactive: 87%.
Turning to `Cc1cccc(Cn2c(=O)n(CC3CCC(C(=O)NC(C)C)CC3)c(=O)c3sccc32)c1` (centres undefined), the survival was inactive: 77%.
On to `CSc1ccc(CCNC(=O)C2=C(C)C(=O)OC23CCCCC3)cc1`, for which the survival was inactive: 79%.
For `COc1ccc(NC(=O)CN2C(=O)C(C)(C)c3ccccc32)cc1Cl` the value was inactive: 51%; for `N#Cc1nc(-c2ccc(COc3ccccc3)o2)oc1NCc1cccnc1`, inactive: 66%; for `COc1ccccc1CN1CCC(CNS(=O)(=O)c2cc(-c3onc(C)c3C)ccc2OC)CC1`, inactive: 63%.
As for `Cc1nn(-c2ccccc2)c(OC(=O)c2cccc(Br)c2)c1S(=O)(=O)c1ccccc1`, the figure is inactive: 76%; as for `Cc1ccc(-c2nnc(Nc3ccc(Br)cc3)c3ccccc23)cc1S(=O)(=O)NCC1CCCO1` (centres undefined), inactive: 80%.
For `Cc1nc(N2CCCC2)c2c(C(=O)N3CCN(c4ccc(F)cc4)CC3)c(C)oc2n1` the value was inactive: 80%; for `COC(=O)c1ccc(OCC2c3cc(OC)c(OC)cc3CCN2C(=O)c2ccccc2C)cc1` (centres undefined), inactive: 66%.
On to `O=C(OC1CSc2nc3ccccc3n2C1)c1ccco1` (centres undefined), for which the survival is inactive: 104%.
For `CCc1cccc(CC)c1NC(=O)c1c(C)oc2ccc(O)c(CN3CCN(C)CC3)c12` the value was inactive: 86%; for `Cc1cccc(N2CCN(C(=O)Cn3ncc4c3-c3cc(C)ccc3OC4)CC2C)c1` (centres undefined), inactive: 45%.
For the molecule `CCOC(=O)c1cc2c(ccn2C)n1CC(=O)N1CCCC(C)C1` (centres undefined), the survival is inactive: 99%.
As for `O=C(CSc1nnc(Cc2ccccc2)n1Cc1ccco1)NC1CCCC1`, the figure is inactive: 102%.
For `Cc1cc(C)cc(NC(=O)c2cc(C)nc3c2c(C)nn3-c2ccccc2)c1` the value was active: -6%.
On to `CCOc1ccc(NC(=O)c2cc3c(C)nn(-c4ccccc4)c3s2)cc1`, for which the survival is inactive: 78%.
As for `Cc1ccc(OCC(=O)N(Cc2ccc(Cl)cc2)Cc2ccco2)cc1C`, the figure is inactive: 85%.
As for `CCOc1ccc(C2CC(=O)NC(NC(=O)c3ccc(C)cc3)=N2)cc1` (centres undefined), the figure is inactive: 71%.
As for `COc1ccc(NC(=O)Cn2c(=O)n(CCC(C)C)c(=O)c3cccnc32)cc1Cl`, the figure is inactive: 89%; as for `COc1cccc(-c2nc(SCC(=O)NCC3CCCO3)c(-c3ccc(C)cc3)[nH]2)c1` (centres undefined), inactive: 85%.
`COc1ccc(NC(=O)c2ccc3c(=O)n4nc(Nc5ccccc5C)sc4nc3c2)cc1Cl`: the survival is inactive: 73%.
For `Cc1ccccc1Nc1cc(C(=O)NC2CCCC2)c2ccccc2n1` the value was inactive: 94%; for `CC(C)NC(=O)C1CCC(Cn2c(=O)c3sccc3n(CC(=O)N3CCCC3)c2=O)CC1` (centres undefined), inactive: 60%; for `CCN(C(=O)c1cc2c(=O)oc3ccccc3c2s1)c1ccc(C)c(C)c1`, inactive: 19%.
For `Cc1ccc(Cn2c(C(=O)O)c(CNC3CCCCC3)c3ccc(C)cc32)cc1` the value was inactive: 87%; for `CCCOc1ccc(NC(=O)CC2C(=O)N(c3ccccc3)C(=O)N2Cc2ccc(F)cc2)cc1` (centres undefined), active: -1%; for `Cc1cccc(Cn2cc(/C=C(/C#N)C(=O)Nc3cccc(Cl)c3)c3ccccc32)c1`, inactive: 77%.
As for `CCOc1ccccc1NC(=O)Cn1c(=O)n(Cc2nc(C)no2)c(=O)c2ccccc21`, the figure is inactive: 68%; as for `CC(C)=CCc1c(O)cc(O)c2c1OC(c1ccccc1)CC2=O` (centres undefined), active: 1%; as for `CCC(=O)C1C(=O)CC(C)(C)CC1=O`, inactive: 120%.
Regarding `Cc1ccc(C(=O)NCC(c2ccc3c(c2)OCO3)N2CCN(c3ccc(F)cc3)CC2)cc1` (centres undefined), the survival was inactive: 68%.
For `Cc1ccccc1C(=O)Nc1ccccc1OCc1cc(=O)n2ccccc2n1` the value was inactive: 59%.
For `O=C(COC(=O)c1cccs1)NCc1cccs1` the value was inactive: 103%.
As for `CCOc1ccc(CCNC(=O)c2c(C)oc3ncn(CC(C)C)c(=O)c23)cc1`, the figure is inactive: 75%; as for `Cc1cccc(-c2nc(S(=O)(=O)c3ccc(Cl)cc3)c(N3CCCCCC3)o2)c1`, inactive: 41%.
`Cc1cccc(CS(=O)(=O)Cc2ccc(C(=O)NCc3ccccc3)o2)c1`: the survival is inactive: 136%.
As for `CCN(CC)c1nc2c(S(=O)(=O)c3ccccc3)nnn2c2ccc(Cl)cc12`, the figure is active: 9%.
Regarding `CCOc1ccccc1CNC(=O)c1nc(-c2ccc(Cl)cc2)n2c1CCCCC2`, the survival was inactive: 73%.
As for `CCc1ccc(NC(=O)Cn2nnnc2N)cc1`, the figure is inactive: 115%.
For `Nc1nnc(CSCc2ccccc2)s1` the value was inactive: 110%; for `CC1CCN(C(=O)Cn2c(SCC(=O)NC(C)(C)C)nc3ccccc32)CC1`, inactive: 102%.
`CSc1nc2ccc(S(=O)(=O)N3CCCCC3)cc2s1`: the survival is inactive: 105%.
`Clc1ccccc1CNc1ncnc2c1nc1n2CCCC1`: the survival was inactive: 99%.
Turning to `COC(=O)c1c(NC(=O)COc2ccc(C)cc2Br)sc2c1CCCC2`, the survival was inactive: 44%.
For `Cc1cccc(NC(=O)C2CCCN(S(=O)(=O)c3ccc4c(c3)oc(=O)n4C)C2)c1C` (centres undefined) the value was inactive: 89%; for `Cc1ccc2oc(-c3cc(N=C/C=C/c4ccc5c(c4)OCO5)ccc3O)nc2c1`, inactive: 113%; for `CCOc1ccc(N(C)S(=O)(=O)c2cc(-c3cc(C)no3)ccc2OC)cc1`, inactive: 72%.
For `Cc1ccc(CNC(=O)CN(C)S(=O)(=O)c2ccc3c(c2)c(=O)n(C)c(=O)n3C)cc1` the value was inactive: 84%.
Regarding `COc1cccc(N2C(=O)C(CC(=O)Nc3ccccc3)N(CCc3sccc3C)C2=O)c1` (centres undefined), the survival was inactive: 79%.
For `CCc1ccccc1NC(=O)CN1C(=O)C2CCCN2c2ccc(S(=O)(=O)N(CC)CC)cc21` (centres undefined) the value was inactive: 81%.
As for `CCOC(=O)C(CC)Sc1ncnc2c1c(-c1ccccc1)cn2-c1ccc(OC)cc1` (centres undefined), the figure is inactive: 70%; as for `Cc1c(CNC2CCC(C)CC2)c(C(=O)O)c(C)n1Cc1ccc(Cl)cc1` (centres undefined), inactive: 117%.
For `O=C(CSc1nnc(-c2ccccc2)c(-c2ccccc2)n1)NCCc1ccccc1` the value was inactive: 68%; for `CCS(=O)(=O)N1CC(=O)N(c2ccc(Cl)cc2C)C(C)(C(=O)NC2CCCCC2)C1` (centres undefined), inactive: 91%.
On to `O=C(NCCc1ccc(F)cc1)C(=O)NCC(c1cccs1)S(=O)(=O)c1ccc(Cl)cc1` (centres undefined), for which the survival is inactive: 64%.
As for `Cc1cc(C)c(OCC(=O)N(Cc2ccc(N(C)C)cc2)CC2CCCO2)c(C)c1` (centres undefined), the figure is inactive: 81%; as for `Cc1cc(=O)n(CC(=O)N2CCCc3ccccc32)c2c1c(C)nn2-c1cccc(F)c1`, inactive: 58%; as for `Cc1ccc(C)c(N(C)C(=O)c2cc3c(s2)-c2ccccc2OC3)c1`, active: -2%.
As to `COc1ccc(C(=O)Nc2ccccc2C(=O)Nc2ccccn2)cc1`, the survival was inactive: 113%.
As for `CCn1c(=O)c2cc(C(=O)NCc3ccc(F)cc3Cl)sc2c2ccccc21`, the figure is inactive: 81%.
As for `CCCCOC(=O)c1ccc(OC(=O)c2sc3ncn(Cc4cccc(F)c4)c(=O)c3c2C)cc1`, the figure is inactive: 59%.
For `CCOC(=O)c1[nH]c(C)c(CCC(=O)Nc2ccccc2OCC)c1C` the value was inactive: 84%; for `CCC(C)NC(=O)Cn1c(=O)n(CCCCCC(=O)Nc2ccccc2)c(=O)c2sccc21` (centres undefined), inactive: 92%.
As for `CCCN(C(=O)Cc1nc(-c2ccc(OC)cc2)no1)c1ccccc1C`, the survival was inactive: 87%.
For `CCc1cccc(C)c1NC(=O)CCCn1c(C)c2cnn(-c3ccccc3)c(=O)c2c1C` the value was inactive: 73%; for `CN(C)CC(O)COc1ccc2ccccc2c1` (centres undefined), inactive: 125%; for `Cn1c(=O)c2c(nc(NCCCCO)n2Cc2ccccc2Cl)n(C)c1=O`, inactive: 77%.
As for `COc1ccc(C(=O)Nc2nnc(SCc3cc(=O)c4cccc(F)c4[nH]3)s2)cc1`, the figure is inactive: 80%; as for `COc1ccc2c(C)c(CCC(=O)NCCc3ccc(OC)c(OC)c3)c(=O)oc2c1`, inactive: 80%; as for `CN1C(=O)CC(C(=O)Nc2ccc(C(=O)O)cc2)SC1=Nc1ccc(Cl)cc1` (centres undefined), inactive: 75%.

Values taken from PubChem BioAssay AID463173 (ICCB-Longwood Screening Facility, Harvard Medical School, 2010).
